Test results from PMC4336329 (PLoS ONE, 2015).
In all, about 310,000 compounds went through this assay and about 14,000 (4.5%) showed an effect of 50% or more. The effect is printed as a negative number. The list shows a part of the results.

The compounds below were run against human ether-à-go-go-related gene (hERG) potassium channel (human, UniProt Q12809) (assay: primary screen, population patch clamp on CHO cells stably expressing hERG).
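Also: peak tail current of the secondary pulse compared with the same well before compound.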

human ether-à-go-go-related gene (hERG) potassium channel, sequence (Q12809 whole entry, looked up): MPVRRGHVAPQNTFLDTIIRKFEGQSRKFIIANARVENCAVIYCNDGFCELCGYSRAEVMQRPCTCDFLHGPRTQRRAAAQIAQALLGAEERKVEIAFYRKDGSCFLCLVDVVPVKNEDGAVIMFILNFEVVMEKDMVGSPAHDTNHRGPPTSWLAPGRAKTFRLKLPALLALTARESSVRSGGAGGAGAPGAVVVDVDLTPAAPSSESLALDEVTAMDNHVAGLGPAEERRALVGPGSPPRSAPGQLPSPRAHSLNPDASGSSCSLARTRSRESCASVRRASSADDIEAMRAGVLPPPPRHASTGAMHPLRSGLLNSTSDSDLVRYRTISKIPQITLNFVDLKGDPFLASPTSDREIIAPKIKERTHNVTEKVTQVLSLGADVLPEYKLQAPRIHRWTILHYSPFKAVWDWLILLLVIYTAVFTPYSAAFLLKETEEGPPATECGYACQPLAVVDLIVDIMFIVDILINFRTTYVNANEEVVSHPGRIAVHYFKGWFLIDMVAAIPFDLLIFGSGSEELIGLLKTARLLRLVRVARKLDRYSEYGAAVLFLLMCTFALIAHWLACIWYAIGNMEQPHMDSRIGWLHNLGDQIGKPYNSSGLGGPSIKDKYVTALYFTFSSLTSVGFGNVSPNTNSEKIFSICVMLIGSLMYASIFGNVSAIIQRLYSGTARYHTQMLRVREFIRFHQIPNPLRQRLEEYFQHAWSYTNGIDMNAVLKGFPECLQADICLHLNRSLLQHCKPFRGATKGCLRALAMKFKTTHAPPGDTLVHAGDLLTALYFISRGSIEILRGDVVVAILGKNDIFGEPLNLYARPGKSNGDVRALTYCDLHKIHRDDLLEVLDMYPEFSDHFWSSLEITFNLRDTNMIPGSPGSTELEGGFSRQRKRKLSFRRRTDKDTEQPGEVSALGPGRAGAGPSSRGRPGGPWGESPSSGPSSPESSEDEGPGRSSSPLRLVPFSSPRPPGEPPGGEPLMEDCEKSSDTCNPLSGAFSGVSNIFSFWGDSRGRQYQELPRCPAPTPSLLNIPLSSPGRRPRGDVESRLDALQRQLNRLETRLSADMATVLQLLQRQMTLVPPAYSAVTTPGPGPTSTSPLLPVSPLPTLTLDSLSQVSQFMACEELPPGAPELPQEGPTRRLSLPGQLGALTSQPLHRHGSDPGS

SMILES | hERG current change (%, negative = inhibition) at 10uM [%]
COc1cc(OC)cc(C(=O)N2CCC(C(=O)N3CCOCC3)CC2)c1 | 17
Cc1cccc(OCC(=O)Nc2ccccc2-c2ccccc2)c1 | 9.76
O=C(CN1CCOCC1)Nc1ccc(OCc2ccccc2)cc1 | -21.3
COc1cc(C2C3=C(CCCC3=O)Nc3[nH]n(-c4ccccc4)c(=O)c32)ccc1OC(C)=O (stereo not drawn) | 14.2
CN(C)c1ccc(/C=C(\C#N)C(=O)c2ccccc2)cc1 | 13.3
NC(=S)N/N=C/c1cc([N+](=O)[O-])ccc1Cl | 30.4
O=C(CN1C(=O)COc2ccccc21)NCCCN1CCOCC1 | 20.3
CNC(=O)/C(=C/c1ccc2c(c1)OCO2)NC(=O)c1ccc(Br)cc1 | -63.4
O=C(CSc1nc2[nH]ncc2c(=O)n1-c1ccccc1Cl)N1CCCC1 | -7.31
Cc1c(C(=O)Nc2nnc(SCc3ccccc3Cl)s2)cccc1[N+](=O)[O-] | 10.8
O=C(NNc1cc(C(F)(F)F)ccc1Cl)c1ccc(=O)[nH]c1 | 21.9
CC(=O)Oc1cccc(C2C3=C(CC(C)(C)CC3=O)Nc3ccccc3N2C(C)=O)c1 (stereo not drawn) | 8.02
COC(=O)c1cc(NC(=O)CC2C(=O)NCCN2C(=O)c2ccccc2)cc(C(=O)OC)c1 (stereo not drawn) | 17.7
CC(=O)Nc1ccc(NC(=O)c2ccccc2F)cc1 | 2.37
O=C1NC(=S)N/C1=C/c1cc2c(cc1[N+](=O)[O-])OCO2 | 20.1
CC(=O)c1sc(NC(=O)COc2ccc([N+](=O)[O-])cc2)nc1C | 8.3
C[C@@H]([C@H](O)c1ccccc1)N(C)C(=S)Nc1ccccc1 | 16.3
Cc1ccc(CN2CCCN(Cc3ccc(Cl)cc3)S2(=O)=O)cc1 | 22.6
OC1/C(=C/c2ccc(F)cc2)N2CCC1CC2 (stereo not drawn) | 21.6
CC(OC(=O)CN1C(=O)c2ccccc2C1=O)C(=O)NCc1ccccc1 (stereo not drawn) | 10.7
COc1ccc(/C=C/c2n[nH]c(=O)c(C#N)c2C)cc1 | 12.1
O=C(NCCCn1ccnc1)C1CC(c2cccc(Br)c2)=NO1 (stereo not drawn) | -31.8
Cc1ccccc1NC(=O)C1CCCN1S(=O)(=O)c1cccc2cccnc12 (stereo not drawn) | -12

SMILES | hERG current change (%, negative = inhibition) at 10uM [%]
O=C(CSc1nnc(-c2ccc(F)cc2)o1)Nc1ccccc1N1CCOCC1 | -24.4
CN(Cc1cccs1)C(=O)c1cc(S(=O)(=O)N2CCOCC2)ccc1N1CCCC1 | -27.1
COc1ccc(OC)c(NS(=O)(=O)Cc2ccccc2)c1 | 4.62
CCn1ccnc1CNCc1cn(-c2cc(C)ccc2C)nc1-c1ccccc1 | -69.3
O=C(Nc1ccc(COc2ccccc2)cc1)Nc1cccc(C(=O)O)c1 | 23.4
Cc1ccc(C)c(NC(=S)N2CCN(c3cccc(C(F)(F)F)c3)CC2)c1 | 7.13
O=C(CN1C(=O)C2CC=C(Cl)CC2C1=O)NCc1ccccc1 (stereo not drawn) | -9.18
COc1cc(/C=C2/NC(=O)NC2=O)cc(Br)c1OCc1ccccc1 | 6.18
CCOC(=O)C1CCCN(c2nc(C)nc3c2oc2ccccc23)C1.Cl (stereo not drawn) | -35.8
Cc1cc(NCCNC2=CC(=O)CCC2)nc2ccccc12 | -26.2
O=C(CCCN=C1NS(=O)(=O)c2ccccc21)OCC(=O)N1CCc2ccccc21 | 12.7
CCCCCC(=O)NC(=S)Nc1ccc(NC(=O)c2ccco2)cc1 | 2.58
COc1cccc2[nH]c3c(N4CCC(C(N)=O)CC4)ncnc3c12 | 15.3
Cc1csc2c(NC3CCN(Cc4ccccc4)CC3)ncnc12 | -31.8
CCc1nnc(NC(=O)CCC(=O)NCc2ccc(C)cc2)s1 | 24.7
COc1ccc(S(=O)(=O)Nc2c(C)cc(C)cc2C)c2cccnc12 | -4
CCCC1=NN2C(=N)/C(=C\c3cc(C)n(Cc4ccccc4)c3C)C(=O)N=C2S1 | -3.6
CC(C)(C)NC(=O)NC(=O)COC(=O)CNC(=O)c1cc(Cl)cc([N+](=O)[O-])c1 | 16.9
COc1cccc(NC(=O)CCc2nnc3ccc(N4CCC(C)CC4)nn23)c1 | 3.74
COc1cc(OC)c(OC)cc1/C=C1/Cc2ccccc2C1=O | 8.91
CC(=O)NN(O)C1N(C)C(=O)N(Cc2ccccc2)C1(C)C (stereo not drawn) | 15
S=c1[nH]nc(Cn2c(-c3ccccn3)nc3ccccc32)n1-c1ccc2c(c1)OCCO2 | 11
